From ChEMBL document CHEMBL1157539, “Thousands of chemical starting points for antimalarial lead identification” (Nature, 2010) come the findings set out here.

The full ranking holds about 13,000 compounds; the median of “IFI” is about 4, and the highest 2% start at about 17. This is one part of the list.

The test in a line: GSK_TCMDC: Inhibition Frequency Index (IFI). The number of non-kinase HTS assays where a compound showed > 50 % inhibition, expressed as a percentage of the number of such assays in which the compound was tested (-0 is zero). The class given is functional.
In turn, `CCN(CC)CCCC(C)Nc1c2ccccc2nc2c1ccc1ccccc12` (stereo not drawn) returned an IFI of 2.33%. Molecule `O=C(N[C@@H](CC1CCCCC1)C(=O)NCCc1ccc(Cl)c(Cl)c1)c1ccc(O)c(-c2ccc(Cl)c(Cl)c2)c1` returned an IFI of 2.22%. For the molecule `Cc1ccc2nc3sc(C(=O)NCCCN4CCC(N5CCCCC5)CC4)cc3cc2c1`, the IFI was 2.94%. Regarding `CN(C)CCOc1ccc(N2CCN(CCCCNC(=O)c3ccc(NC(=O)c4ccc(Cl)cc4)cc3)CC2)cc1`, the IFI came out at 5.45%. `COc1ccc(CC(=O)NC(CCN2CCC3(CC2)CN(S(C)(=O)=O)c2ccccc23)c2ccc(Cl)c(Cl)c2)cc1OC` (stereo not drawn) came in with an IFI of 3.45%. `Cc1sc2nc(CN3CCCC3)nc(-n3c(NCCO)nc4ccccc43)c2c1C` returned an IFI of 9.3%. In turn, `COc1cc(OC)cc(-c2nn(-c3ccc([N+](=O)[O-])cc3C#N)c(=S)n2Cc2ccco2)c1` returned an IFI of 1.39%. In turn, `Cc1cc(-c2cccc3c(C(=O)N4CCc5cc6nccc(N7CCN8CCC[C@H]8C7)c6cc54)cccc23)cc(C)n1` yielded an IFI of 2.96%. As to `Cc1ccc(S(=O)(=O)N2CCCN(C(=O)c3cc(-c4ccccc4)[nH]n3)CC2)cc1`, the IFI is -0%. With `N=C(NCCCc1ccccc1)c1cccc(C(=N)NCCCc2ccccc2)n1`, the IFI is 1.47%. Consider `COc1ccc(-n2nc(C(=O)NCc3ccccc3OC)c3ccccc3c2=O)cc1`, for which the IFI is 2.13%.

In turn, `CCCC1(NC[C@@H](O)[C@H](Cc2ccccc2)NC(=O)c2cc(NCC)cc(N3CCCCS3(=O)=O)c2)CC1` returned an IFI of 3.01%. Under `O=C(c1ccc(OCCn2ccnc2)cc1)N1CCC(c2ccc(Br)cc2)C1` (stereo not drawn) stands 2.38%; under `O=C(Cc1cccc(Cl)c1)Nc1cccc(-c2c[nH]c3nc(Nc4cccc(OCc5ccccc5)c4)ncc23)c1`, 1.53%; under `Cc1nc2ccc(NC(=O)Nc3ccnc4ccc(C(F)(F)F)cc34)cc2o1`, 1.52%. In turn, `Cc1cnc(NCC2CCCCC2)nc1N[C@@H](CO)C(=O)Nc1ccccc1` came in with an IFI of 4.88%. Turning to `O=C(/C=C/c1ccc(Cl)c(Cl)c1)NCCCCCN1CCC(C(=O)Nc2ccc3c(c2)OCO3)CC1`, the IFI stood at 6.86%. Molecule `CCCCCCn1c(Sc2ccc(C#N)c([N+](=O)[O-])c2)nnc1-c1cc(OC)cc(OC)c1` registered an IFI of 9.93%. In turn, `COc1ccc(N2CCN(CCCCNC(=O)c3ccc(/C=C/c4ccc(Cl)c(Cl)c4)cc3)CC2)c(OC)c1` showed an IFI of 3.54%.

Molecule `CC(C)c1ccc(NC(=O)c2cccc(CN3CCCN(Cc4cccc(C#N)c4)CC3)c2)cc1` displayed an IFI of 8.22%. As to `O=C(Nc1ccc(Cl)c(-c2nc3ccccc3[nH]2)c1)c1ccc(-c2ccc(Cl)cc2)o1`, the IFI came to 2.82%. Molecule `Cc1nc2ccc(-c3nc4cc(N)ccc4[nH]3)cc2[nH]1` yielded an IFI of 5.8%.

In turn, `Nc1cccc(CNCc2ccc(-c3cccc(-c4nc5ccccc5[nH]4)c3)cc2)c1` registered an IFI of 6.54%. `O=C(NCCCCN1CCC(c2ccc3c(c2O)CCCC3)CC1)c1ccc(-c2ccc(Cl)cc2)cc1`: the IFI came to 12%. To `N#CC(c1ccc(F)cc1)c1ccc2c(C(F)(F)F)cc(C(F)(F)F)nc2n1` (stereo not drawn) belongs 9.7%; to `COc1ccccc1C1CCN(C2CCC(NC(=O)c3ccc4[nH]c(-c5ccc(C)cc5)nc4c3)CC2)CC1` (stereo not drawn), 11.3%; to `COc1cc(Br)c(S(=O)(=O)n2cc(CN3CCC(N)CC3)c3cc(Cl)ccc32)cc1OC`, 12.7%.

Consider `O=S(=O)(c1cccc(Br)c1)N1CCCCC(c2ccc(C(F)(F)F)cc2)=N1`, for which the IFI amounted to 0.74%. Under `CC1(C)CCC(C)(C)c2c1ccc(C1CCN(CCCCNC(=O)c3ccc(-c4ccc(C#N)cc4)cc3)CC1)c2OCC(N)=O` stands 5.47%. As for `CC(=O)Nc1ccc(CN2CCC(NC(=O)c3ccc(-c4ccc(N(C)C)cc4)s3)CC2)cc1`, the IFI came to 7.02%.

`COc1cccc(CN2CCC(N3CCc4cc(NC(=O)c5cc(C)on5)ccc43)C2)c1OC` (stereo not drawn): the IFI worked out at 0%. `c1ccc2c(NCCCCCCCCCNc3ccnc4ccccc34)ccnc2c1` came in with an IFI of 12.1%.

In turn, `Nc1n[nH]c(-c2ccccc2Nc2ccnc3cc(-c4nccs4)ccc23)n1` yielded an IFI of 3.7%. `CCN(CC)CCN(Cc1ccc(-c2ccc(Cl)s2)cc1)C(=O)Cn1c(CCc2cccc(F)c2F)nc(=O)c2ccccc21` displayed an IFI of 5.15%. `Cc1ccc(C(=O)Cn2nc(-c3ccc(C)c(S(=O)(=O)N4CCCC4)c3)ccc2=O)cc1` gave an IFI of -0%. `Cc1cc(N/N=C/c2ccccc2[N+](=O)[O-])c2cc(C(F)(F)F)ccc2n1`: the IFI is 0%.

Turning to `N=C1NC(=O)C(=Cc2cn(-c3ccccc3)nc2-c2cccc(S(=O)(=O)N3CCCC3)c2)S1`, the IFI came to 0%. Regarding `CCC1(CC)N=C(N)N=C(N)C1c1ccc(Cl)c(Cl)c1` (stereo not drawn), the IFI is 0.75%. As for `COc1cccc2cc(C(=O)N[C@@H](CC(C)C)C(=O)N[C@H](C=NNC(=O)OC(C)(C)C)CC(C)C)oc12`, the IFI is 3.67%. `CCOC(=O)Nc1cc(-c2csc(N=C(N)N)n2)cc([N+](=O)[O-])c1` came in with an IFI of 1.45%. To `O=C(Nc1ccccc1)N(Cc1ccc(-c2cccc(CNC3CCCC3)c2)cc1)C1CCN(Cc2ccccc2)CC1` belongs 7.04%; to `COC(=O)Nc1cc(C(F)(F)F)ccc1N1CCC(CNS(=O)(=O)c2ccc(OC)cc2)CC1`, 7.04%; to `NC12CC3CC(CC(C3)C1)C2`, 1.42%. With `CN1CCCC1CCNc1ncc2c(-c3ccc(NC(=O)Nc4cc(C(F)(F)F)ccc4F)cc3)nn(C)c2n1` (stereo not drawn), the IFI came to 9.3%. `CCCC1CCNC(C(O)c2ccnc3ccc(OC)cc23)C1` (stereo not drawn): the IFI is 0.79%.

Molecule `COc1ccc(-n2cc(CNCCCn3ccnc3)c(-c3cccc(F)c3)n2)cc1` returned an IFI of 12.2%. To `CC(C)Cc1cn(-c2nc(-c3nc4ccccc4[nH]3)cs2)c2cc(Cl)ccc12` belongs 1.18%; to `COc1ccc2nccc([C@@H](O)CN3CCC(NCc4nc5c(cc4F)SCC(=O)N5)C(F)C3)c2c1` (stereo partly drawn), 4.76%; to `O=C(Nc1ccc(Cl)cc1)c1cc(Cl)ccc1NC(=O)C1(c2ccc(Cl)cc2)CCCC1`, 5.56%. To `O=C(N/C=N/c1cc([N+](=O)[O-])c(-c2ccncc2)n1-c1ccccc1)c1cccc(O)c1` belongs 2.11%. Molecule `COc1cc(F)c2nccc([C@@H](O)CN3CCC(NCc4nc5cccc(F)c5[nH]4)CC3)c2c1` came in with an IFI of 2.13%.

`OC[C@H]1CCCN1CC#Cc1cc2c(Nc3ccc(OCc4cccc(F)c4)c(Cl)c3)ncnc2s1` displayed an IFI of 2.92%. In turn, `COc1ccc2ncn(-c3ccc(C(N)=O)c(OCc4ccccc4C(F)(F)F)c3)c2c1` came in with an IFI of 3.1%. The molecule `Cc1ccc(CON2C(N)=NC(N)=NC23CCCCC3)c2ccccc12` displayed an IFI of 6.47%.

`Cn1nc(-c2ccc(CNC3CCc4ccccc43)cc2)c2cnc(NCCCN3CCCC3)nc21` (stereo not drawn) came in with an IFI of 3.85%.

As to `COc1ccc(N2C(=O)C3C(C2=O)C2(C)c4ccccc4C3(C)c3ccccc32)c([N+](=O)[O-])c1` (stereo not drawn), the IFI came to 0%.

As to `c1csc(-c2nc(N3CCCCC3)ncc2-c2ccsc2)n1`, the IFI came out at 6.82%. With `NCC1CCCN1Cc1ccc(-c2ccc(-c3nc4ccccc4[nH]3)s2)cc1` (stereo not drawn), the IFI came out at 8.91%. For the molecule `Cc1ccc(C(=O)Nc2ccc(F)c(F)c2F)cc1S(=O)(=O)N1CCCCC1`, the IFI came to 1.85%.

The molecule `O=C(/C=C/c1ccc(Cl)c(Cl)c1)NCCCCCN1CCC(NC(=O)c2ccc3ccccc3c2)CC1` gave an IFI of 3.88%. To `CC(C)(C)OC(=O)N1CCN(c2ccccc2NC(=O)c2cccc(C(F)(F)F)c2Oc2ccc(F)cc2)CC1` belongs 0.7%; to `CNC(=O)c1cnc(Nc2ccc(OCC(O)CN(C)C)cc2)nc1Nc1cccc(Br)c1` (stereo not drawn), 4.44%.

As for `COc1ccc(N2CCN(CCCOc3ccc(NC(=O)c4cc(Cl)cc(Cl)c4)cc3)CC2)c(OC)c1`, the IFI came out at 8.77%. With `CC(=O)Nc1nc(C(=O)Nc2ccc(-c3cccc(-c4nc5ccccc5[nH]4)c3)cc2)cs1`, the IFI turned out to be 6.42%.

For `C=CCn1c(=N)n(CC(O)c2ccc(Cl)c(Cl)c2)c2ccccc21` (stereo not drawn), the IFI amounted to 2.19%.

For `Fc1cccc(C=NN=c2cc[nH]c3ccc(C(F)(F)F)cc23)c1`, the IFI is -0%.

Molecule `COc1ccccc1C1CC(c2ccc(C)cc2)=NN1C(=O)c1ccccc1` (stereo not drawn) returned an IFI of 1.99%. Turning to `CN1CC[C@@H](Oc2cc(NC(=O)Nc3ccccc3Br)ccc2Cl)C1`, the IFI was determined as 1.75%. Take `Cc1nc(N)nc(N)c1Oc1cccc(Cl)c1`: the IFI was -0%.

In turn, `CC(C)Sc1nncc(-c2cnnc(SC(C)C)n2)n1` displayed an IFI of -0%. Turning to `CCCOc1ccc(NC(=O)c2cccs2)cc1Cl`, the IFI was found to be 3.7%. `O=C(Nc1ccc(Cl)cc1)c1ccc(CN2CCCN(Cc3cccc(F)c3)CC2)cc1` registered an IFI of 9.52%. `Cc1c(C2CCN(CCCCNC(=O)c3ccc(-c4ccc(C#N)cc4)cc3)CC2)c2ccccc2n1CCO` yielded an IFI of 1.83%. Consider `Cc1cc(=NN=Cc2ccc(F)cc2)c2cccc(C)c2[nH]1`, for which the IFI is -0%. In turn, `O=C(Nc1cccc(C(F)(F)F)c1)N1CCOC(CCN2CCC(c3ccccc3)CC2)(c2ccc(Cl)c(Cl)c2)C1` (stereo not drawn) displayed an IFI of 8.11%. Under `Cc1cc(N)c2cc(NC(=O)c3cccc4ccccc34)ccc2n1` stands 0%; under `CCN(CC)CCCN1CCN(C(=O)c2cccc(-c3noc(C(F)(F)F)n3)c2)CC1`, 0.94%. For `CCN(CC)CCN(Cc1ccc(-c2ccc(C(F)(F)F)cc2)cc1)C(=O)c1ccc(-c2ccc(C#N)cc2)cc1`, the IFI stood at 6.9%. With `O=C(Nc1cc(Cl)cc(Cl)c1)c1cc(Cl)c(=O)n(Cc2ccc(Cl)cc2)c1`, the IFI stood at 5.59%.

`CC(Oc1c(C2CCN(CCCCNC(=O)c3ccc(-c4ccc(C#N)cc4)cc3)CC2)ccc2c1CCCC2)C(N)=O` (stereo not drawn) had an IFI of 5.71%. Under `O=C(Nc1cc(C(F)(F)F)cc(C(F)(F)F)c1)NC(CCCN1CCC2(CC1)OCc1ccccc12)c1ccc(Cl)c(Cl)c1` (stereo not drawn) stands 10.6%. `COc1ccc(Nc2ncc3c(-c4cccc(NC(=O)c5ccccc5)c4)c[nH]c3n2)cc1OC` registered an IFI of 5.56%. The molecule `Cc1cc(O)c2c(c1)OC(C)(C)C=C2C1=CCN(Cc2ccccc2)CC1` gave an IFI of 0.72%.

Molecule `CCc1c(CCNCCCCCCNC(C)Cc2ccc3c(c2CC)OCO3)ccc(OC)c1OC` (stereo not drawn) had an IFI of 10.7%. To `CCCCCCN1CCCN(Cc2ccc(C(=O)Nc3ccc(Cl)cc3)cc2)CC1` belongs 15.2%. In turn, `CC(C)CC(NC(=O)c1cccc(OCCN2CCOCC2)c1)C(=O)NC(/C=N/NC(=O)c1ccccc1)CCc1ccccc1` (stereo not drawn) showed an IFI of 6.25%. Take `CCc1c(C)nc(-n2nc(C)cc2NC(=O)C2c3ccccc3Oc3ccccc32)[nH]c1=O`: the IFI stood at 9.62%.

In the case of `Oc1ccc(CCNc2nc(NCc3cccc(-c4cc(C(F)(F)F)ccc4Cl)c3)nc(N3CCNCC3)n2)cc1`, the IFI amounted to 9.38%.
